According to article PMC4081100:
The list shows a part of the results, in another mix than the full data. For some of these results: At the low end of the ranking, values are background and their order means little. Some of the results follow. For some of these results: The exact form of the protein is not confirmed.

Experiments:
Assay in all cases: universal protein binding microarray (PBM)
Details in all cases: transcription factors of Arabidopsis thaliana; high values mean tight binding; most listed sequences are background and not binding sites; double strand, one strand shown
GST-NTL6(1-168) = GST-NTL6(1-168) (UniProt Q9SCK6)
GST-ANAC019 NAC domain = target: T1, GST-ANAC019 NAC domain (UniProt Q9C932)
T1 sequence: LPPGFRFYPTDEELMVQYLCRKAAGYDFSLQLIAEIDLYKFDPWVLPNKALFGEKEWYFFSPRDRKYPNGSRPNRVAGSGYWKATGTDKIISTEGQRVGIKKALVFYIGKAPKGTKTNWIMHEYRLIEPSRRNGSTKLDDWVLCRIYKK

GST-ANAC055(1-171) = target: T2, GST-ANAC055(1-171) (UniProt Q9LDY8)
T2 sequence: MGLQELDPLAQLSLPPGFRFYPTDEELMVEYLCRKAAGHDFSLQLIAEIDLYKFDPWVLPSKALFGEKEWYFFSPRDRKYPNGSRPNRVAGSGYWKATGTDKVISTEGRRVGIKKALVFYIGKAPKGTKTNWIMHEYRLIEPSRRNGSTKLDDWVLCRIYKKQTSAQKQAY

GST-ATAF1 NAC domain = target: T3, GST-ATAF1 NAC domain (UniProt Q39013)
T3 sequence: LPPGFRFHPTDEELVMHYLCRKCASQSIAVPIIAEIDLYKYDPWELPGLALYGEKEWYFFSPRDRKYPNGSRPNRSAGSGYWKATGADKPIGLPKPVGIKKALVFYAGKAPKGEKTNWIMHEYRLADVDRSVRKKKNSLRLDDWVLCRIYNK

[1] = target: T4, GST-ANAC092(1-285) full length (UniProt Q9FKA0)
T4 sequence: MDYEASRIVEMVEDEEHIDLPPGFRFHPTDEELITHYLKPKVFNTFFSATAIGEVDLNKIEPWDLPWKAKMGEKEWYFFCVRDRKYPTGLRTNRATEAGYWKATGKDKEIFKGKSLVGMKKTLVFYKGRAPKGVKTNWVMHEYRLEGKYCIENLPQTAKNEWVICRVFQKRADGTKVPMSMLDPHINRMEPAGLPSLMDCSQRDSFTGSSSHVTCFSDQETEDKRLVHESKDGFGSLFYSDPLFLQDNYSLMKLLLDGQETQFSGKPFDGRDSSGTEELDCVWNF

GST-NAP(1-166) = target: T5, GST-NAP(1-166) (UniProt O49255)
T5 sequence: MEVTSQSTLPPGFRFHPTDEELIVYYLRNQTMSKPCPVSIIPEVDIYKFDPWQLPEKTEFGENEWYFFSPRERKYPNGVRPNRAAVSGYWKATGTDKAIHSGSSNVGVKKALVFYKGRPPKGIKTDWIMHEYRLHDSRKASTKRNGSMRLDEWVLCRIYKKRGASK

GST-NST2(1-184) = target: T6, GST-NST2(1-184) (UniProt Q9M274)
T6 sequence: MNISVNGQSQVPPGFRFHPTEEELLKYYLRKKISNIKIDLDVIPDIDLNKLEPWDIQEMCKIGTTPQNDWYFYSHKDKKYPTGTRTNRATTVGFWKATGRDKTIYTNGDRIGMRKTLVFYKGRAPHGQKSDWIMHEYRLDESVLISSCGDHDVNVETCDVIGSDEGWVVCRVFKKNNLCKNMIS

GST-NTL8 NAC domain = target: T7, GST-NTL8 NAC domain (UniProt Q9XIN7)
T7 sequence: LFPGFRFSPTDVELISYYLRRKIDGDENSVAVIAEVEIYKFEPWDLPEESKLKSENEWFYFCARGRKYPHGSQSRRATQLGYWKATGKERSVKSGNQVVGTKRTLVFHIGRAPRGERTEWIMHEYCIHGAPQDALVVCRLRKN

GST-SND1(1-203) = target: T8, GST-SND1(1-203) (UniProt Q9LPI7)
T8 sequence: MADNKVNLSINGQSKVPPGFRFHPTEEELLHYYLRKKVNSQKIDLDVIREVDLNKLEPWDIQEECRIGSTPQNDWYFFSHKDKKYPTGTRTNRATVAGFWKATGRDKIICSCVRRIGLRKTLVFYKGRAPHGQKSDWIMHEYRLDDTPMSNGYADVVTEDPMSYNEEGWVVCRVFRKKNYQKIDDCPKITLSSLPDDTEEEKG

GST-VND3 NAC domain = target: T9, GST-VND3 NAC domain (UniProt Q9FH59)
T9 sequence: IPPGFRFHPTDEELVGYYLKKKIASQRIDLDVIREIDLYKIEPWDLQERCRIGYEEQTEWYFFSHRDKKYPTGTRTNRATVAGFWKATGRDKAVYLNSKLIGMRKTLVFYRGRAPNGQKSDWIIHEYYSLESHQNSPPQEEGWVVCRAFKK

GST-VND7 NAC domain = target: T10, GST-VND7 NAC domain (UniProt Q9C8W9)
T10 sequence: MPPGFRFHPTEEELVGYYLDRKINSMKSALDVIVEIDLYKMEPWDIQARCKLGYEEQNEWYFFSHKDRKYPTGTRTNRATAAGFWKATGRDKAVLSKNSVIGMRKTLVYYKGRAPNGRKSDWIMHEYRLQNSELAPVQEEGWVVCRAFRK

[2] = target: T11, GST-VOZ2 (Arabidopsis thaliana) (UniProt Q9SLB9)
T11 sequence: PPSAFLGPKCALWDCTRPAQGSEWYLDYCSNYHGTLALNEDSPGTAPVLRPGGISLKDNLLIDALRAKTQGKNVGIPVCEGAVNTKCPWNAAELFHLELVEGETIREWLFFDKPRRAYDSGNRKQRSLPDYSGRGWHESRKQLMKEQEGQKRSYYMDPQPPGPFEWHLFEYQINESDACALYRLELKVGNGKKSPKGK

GST-ANAC092(1-176) = target: T12, GST-ANAC092(1-176) (UniProt Q9FKA0)
T12 sequence: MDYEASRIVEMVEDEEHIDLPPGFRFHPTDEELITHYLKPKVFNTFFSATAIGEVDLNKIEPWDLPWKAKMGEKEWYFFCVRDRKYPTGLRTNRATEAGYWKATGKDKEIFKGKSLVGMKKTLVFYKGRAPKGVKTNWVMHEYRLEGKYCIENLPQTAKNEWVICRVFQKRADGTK

GST-WRKY1(266-371) = GST-WRKY1(266-371) (UniProt Q9SI37)

Sequence	binding signal (GST-NTL6(1-168)) [E-score]	binding signal (GST-ANAC019 NAC domain) [E-score]	binding signal (GST-ANAC055(1-171)) [E-score]	binding signal (GST-ATAF1 NAC domain) [E-score]	binding signal [1] [E-score]	binding signal (GST-NAP(1-166)) [E-score]	binding signal (GST-NST2(1-184)) [E-score]	binding signal (GST-NTL8 NAC domain) [E-score]	binding signal (GST-SND1(1-203)) [E-score]	binding signal (GST-VND3 NAC domain) [E-score]	binding signal (GST-VND7 NAC domain) [E-score]	binding signal [2] [E-score]	binding signal (GST-ANAC092(1-176)) [E-score]	binding signal (GST-WRKY1(266-371)) [E-score]
TGACCAAA	-0.00509	-0.0668	0.0104	0.0216	0.126	-0.077	-0.0424	0.038	0.0442	0.0456	-0.0165	0.113		
CTGGTCAA	-0.0936	-0.0595	-0.0681	-0.0243	-0.101	-0.0439	-0.0641	0.0347	-0.0342	-0.0288	-0.0431	0.0695		
CAGTCAAG	-0.103	-0.00847	-0.0801	-0.0434		-0.00449	-0.0465		-0.088	-0.142	-0.109	-0.108		
GACCAAGA	0.0383		-0.0397	-0.11	-0.154	-0.0199	0.0202	-0.0424	-0.0481	-0.133	-0.0243	-0.0623	-0.0519	
GCAAGTCA	0.0738	-0.0377	0.0179	0.0771		0.0339		0.0445	0.175	0.115		0.00891		
ATAAGTAA		0.0139	0.181			0.0431			0.311	0.264		0.213		
GACGTCAA	0.00893	-0.0623		0.0728				-0.0594	0.139	0.126	0.0526	0.0183		
AGGTCAGC	0.0243	0.00933	-0.127	-0.00783	-0.171	-0.0481	-0.0962	0.0375	-0.0926	-0.0376		-0.0806	-0.0713	
ATTGACTG		0.0091	0.0264		0.0365	0.0235		0.0613	-0.0023	-0.0325		0.00754	0.0112	0.465
ACGCAATA	0.00587		0.212						0.419	0.312		0.0762	0.444	
GTCAAATA		-0.0586		0.141	0.0439		-0.0507	-0.204	-0.0022	0.0795		0.0597	-0.0279	0.461
AGCTTGAC	-0.0527		-0.0714	-0.1		0.0572	-0.0625	0.0279	-0.0184	-0.00553		-0.193		
GACCGGAA	-0.0877		0.0745	0.0148	-0.0284	0.0437	-0.0596		-0.0495	0.0174		0.00545		
CGTATACG	0.0497							0.0435	0.0859	0.321		0.0617		
CAAGCAAG			0.0997			0.0324			0.395	0.0934		0.05	0.369	-0.0203
GATACGTA	0.0687	0.428	0.415	0.341		0.458		-0.0218	0.257	0.405		-0.0588		
GAAGTCAA	0.104		-0.0213	0.0967	-0.016	-0.0724	-0.00448	0.0673	-0.0112	0.00579		-0.127	-0.00489	
GTCAATAA		0.0176			0.0333	0.122	0.118	-0.02	0.0398	0.0493		0.0672	-0.00515	0.457
AGTCAAAG	0.0118	0.0319	0.0286	0.0213	-0.0713	-0.1	-0.0795	0.0881	0.0189	-0.0433		-0.0144	-0.0305	0.486
CCACGGAA	0.117	0.427						0.107	0.0354	0.343		-0.0953		0.0233
CTAGTCAA	-0.0941	0.0699		0.148		-0.0462	0.026	0.0822	-0.00705	0.166		-0.058	0.0129	0.474
AAGTTGAC	-0.084	0.0109			-0.0303	-0.00573	-0.0363	-0.0237	-0.0208	-0.0707		0.0963	-0.0143	
AGTCTTTG	0.0583			0.0487	0.00089	-0.0204	0.0222	0.017	-0.0478	0.0129		-0.0832		
CGACACGC	-0.0982	0.246		0.188		0.194	-0.0184	-0.0321	0.134	0.138		-0.0672		0.021
AAGTCTTC			0.0748		-0.00808	0.0208	0.0164	0.0771	-0.0646	0.123		-0.032	-0.0217	0.429
ATTCCCTC	0.115	0.0664	-0.147	0.00766	-0.181	0.0176	-0.0671		-0.0243	0.00175		0.134	0.0415	-0.0495
CCACGCCA	-0.0164	0.0852						-0.0167	0.141	0.0202		0.0677	0.372	-0.0535
CCCTTGAC	0.0561		-0.00834	-0.0458	-0.004		-0.0221	0.151	0.0155	0.0223	-0.0368	-0.039		
AAAGGTCA	0.0429	-0.0273	0.106			-0.171	0.0387	0.154	-0.00997	0.0202	-0.0014	0.0101		
